This is an account of results in ChEMBL document CHEMBL4888484, “Replenishing the malaria drug discovery pipeline: Screening and hit evaluation of the MMV Hit Generation Library 1 (HGL1) against asexual blood stage Plasmodium falciparum ,using a nano luciferase reporter read-out” (2022).

The structures appear in SMILES notation. Hit rate of the full screen: of about 150,000 compounds, about 540 (0.36%) showed an effect of 50% or more. The list shows a part of the results.

For orientation: % Inhibition means the change of the read-out against control, counted positive when it falls.

The subject of the test is Plasmodium falciparum. As to the kind of experiment: Primary screen in NF54 nanoGlo assay, in single point, at 2uM, 72h; a lower Z score goes with more inhibition. The test is classed as functional, Erythrocyte. The following applies: timepoint 72 hour.
Take `COC(=O)[C@@H](NCC(=O)Nc1ccccc1)C(C)(C)C`: the “% Inhibition” value is given as -8% and the Z score worked out at 1.01.
The corresponding values for `Cn1c(CN2C(=O)N[C@](C)(c3c(F)cccc3F)C2=O)nc2ccccc21` are -16% and 2.43.
`Cc1cnc(N[C@H]2CCN(C)C2=O)nc1-c1ccnn1C`: the “% Inhibition” value is on record as -6% and the Z score is listed as 1.16.
For the compound `Cc1nnc(CN2CCC[C@H](c3nc(C(C)C)cs3)C2)s1`, the “% Inhibition” value is recorded as -8% and the Z score turned out to be 1.01.
The corresponding values for `O=C(CCn1cncn1)N1CCC2(CCC(=O)N(CCc3cccnc3)C2)CC1` are -11% and 2.04.
Turning to `CC1CC1c1ccc(C(=O)Nc2nnc(NS(C)(=O)=O)s2)o1` (stereo not given), the “% Inhibition” value is -1% and the Z score is 0.18.
The corresponding values for `COc1cc(C)nc(N[C@H]2CCCC[C@@H]2OC)n1` are -5% and 0.94.
The like results for `CC[C@H]1COCCN1Cc1cc(F)ccc1Cl` were, in that order, -9% and 1.14.
The corresponding values for `CCO[C@@H](CC)C(=O)Nc1ccn(C)n1` are -14% and 1.45.
Regarding `CCCn1nc(C(=O)O)c2c1CC[C@H](N(C)CCc1ccccn1)C2`, the “% Inhibition” value was found to be 8% and the Z score was -1.1.
The like results for `CCc1nnsc1C(=O)NCC(F)(F)F` were, in that order, -1% and 0.27.
The like results for `O=C1Cc2ccc(CC(=O)N[C@H]3CCO[C@@H]3c3cc[nH]n3)cc2N1` were, in that order, -22% and 2.41.
Turning to `CCS(=O)(=O)N1CCC(N2C(=O)N3CCC[C@@]3(C)C2=O)CC1`, the “% Inhibition” value worked out at 2% and the Z score is -0.17.
As for `C=CCN(CCc1ccccc1)C(=O)[C@H](C)n1ccnc1`, the “% Inhibition” value was 1% and the Z score is on record as -0.12.
The like results for `Cc1c(CC(=O)N2CCCO2)c2c(n1Cc1ccc(F)cc1)CCCC2=O` were, in that order, -18% and 1.69.
The like results for `O=C1[C@H]2CCCN2C(=O)N1C1CCN(c2ccc(Cl)c(F)c2)C1` (stereo not given in full) were, in that order, -14% and 2.21.
On to `CCc1cccc(C)c1NC(=O)COc1ccccc1-c1nnc(-c2ccccc2)o1`, for which the “% Inhibition” value is given as -9% and the Z score turned out to be 0.99.
For the compound `CC(CCO)C1(CNC(=O)NCC2CCCO2)CCC1` (stereo not given), the “% Inhibition” value is on record as -7% and the Z score worked out at 1.25.
The like results for `CCC(=O)N1CCCc2cc(S(=O)(=O)N3CCC(C(=O)Nc4ccc(C#N)cc4)CC3)ccc21` were, in that order, -1% and 0.15.
Take `CC(C)n1cccc1C(=O)N[C@@H](C)C(N)=O`: the “% Inhibition” value is 5% and the Z score is recorded as -0.67.
For the compound `O=S1(=O)CCC(CN2CCCC(c3ccc(F)cc3)CC2)C1` (stereo not given), the “% Inhibition” value came to 1% and the Z score is -0.09.
The corresponding values for `Cc1cccc(OCc2nc(CN(CCN3CCOCC3)C(=O)CC(C)C)cs2)c1` are -2% and 0.34.
The like results for `CNC(=O)CCCN1C[C@@](C)(Cc2ccc3c(c2)OCO3)CCC1=O` were, in that order, 4% and -0.76.
The like results for `Cc1ccc2oc(C(=O)N3CCc4ccccc43)cc2n1` were, in that order, -12% and 1.76.
As for `CN1CCN(Cc2noc(C3(N)CCCC3)n2)CC1`, the “% Inhibition” value is -9% and the Z score is 1.61.
The like results for `Cc1c(C(F)(F)F)nc(-c2ccc(CN3CC(n4cccn4)C3)cc2)[nH]c1=O` were, in that order, -4% and 0.63.
Turning to `COC(=O)N[C@@H](C)C(=O)NCCCn1ccnn1`, the “% Inhibition” value is recorded as -6% and the Z score is reported as 1.
Regarding `C[C@H]1CN(C)CCN1C(=O)c1nc(N2CCOCC2)ncc1Cl`, the “% Inhibition” value is recorded as -14% and the Z score is listed as 2.19.
The like results for `CCCc1cc(C(=O)Nc2ccnc(C)c2)[nH]n1` were, in that order, 0% and 0.05.
As for `O=C(O)c1cccnc1CN1CCN(c2cccc(Cl)c2Cl)CC1`, the “% Inhibition” value is listed as -10% and the Z score came out at 1.19.
`COCCN(C(=O)Cc1c[nH]c2cc(Cl)ccc12)[C@@H](C)C(N)=O`: the “% Inhibition” value is reported as -5% and the Z score is listed as 0.81.
For `Cc1noc(C)c1S(=O)(=O)NCc1ccnc(-c2cnn(C)c2)c1`, the “% Inhibition” value is listed as -8% and the Z score worked out at 1.26.
The like results for `C[C@H]1CCCCN1C(=O)CCc1nc2ccccc2o1` were, in that order, 6% and -0.79.
The like results for `Cc1ccccc1NC(=O)Cn1nc2c(Oc3ccccc3)nccn2c1=O` were, in that order, -9% and 1.17.
For the compound `CC(C)NC(=O)CCNC(=O)Nc1cccc(-c2ccsc2)c1`, the “% Inhibition” value is listed as 4% and the Z score was -0.84.
For the compound `CCC1CCC(C(=O)NCc2nc(C3CC3)n[nH]2)CC1` (stereo not given), the “% Inhibition” value was -10% and the Z score came out at 0.99.
The corresponding values for `Cc1ccc(Cn2cc([C@H](CC(=O)NCc3ccco3)c3ccc(OCc4ccccc4)cc3)c3ccccc32)cc1` are -6% and 0.71.
The corresponding values for `C[C@@H](CN1CCN(C)CC1)OC(=O)COc1ccc(F)cc1` are -6% and 0.97.
Regarding `Cc1ccc(CN(CC(=O)Nc2sc(C)c(C)c2C)C(C)C)s1`, the “% Inhibition” value is reported as -4% and the Z score turned out to be 0.49.
The corresponding values for `CN(C)C(=O)N1CC[C@H](N(CCNC(=O)CC2CCCCC2)C2CCOCC2)C1` are -4% and 0.6.
With `C[C@H](Nc1ccc(C#N)nc1)c1ccn(C)n1`, the “% Inhibition” value is recorded as -5% and the Z score came to 0.59.
As to `CCN(CC)C1CCN(C(=O)N[C@H](c2cccs2)C2CC2)CC1`, the “% Inhibition” value is listed as 5% and the Z score is -0.76.
On to `CN(CCC1(O)CCCC1)Cc1ccc(F)cc1Cl`, for which the “% Inhibition” value is listed as -10% and the Z score stood at 1.89.
For `Cn1nc2c(c1C(=O)N[C@@H]1COCC[C@@H]1Oc1ccccc1)CCCC2`, the “% Inhibition” value is -7% and the Z score came to 1.25.
As to `Cc1cc(NC(=O)Cn2c(=O)c(C#N)c3n(c2=O)CCC3)n(C)n1`, the “% Inhibition” value is recorded as 3% and the Z score is recorded as -0.37.
The like results for `COc1cc(C(=O)N2CCOC23CCN(C)CC3)cc(OC)c1OC` were, in that order, 3% and -0.36.
The like results for `O=C1NCCCCCN(C(=O)CC2CCCCC2)[C@@H]2C[C@@H](C(=O)N3CCc4ccccc4C3)C[C@H]12` were, in that order, -5% and 0.79.
Take `COc1ccc(CC(=O)NCc2ccc(S(=O)(=O)N3CCC(C)CC3)s2)cc1`: the “% Inhibition” value was -25% and the Z score is 2.49.
As to `CNc1nc2c(c(C(=O)N3CCCC3)n1)CN(C(=O)Cn1nccc1C)CC2`, the “% Inhibition” value is given as -7% and the Z score is reported as 1.26.
For the compound `CCN(Cc1noc(C2CCC2)n1)C(=O)NCC1(CC(C)C)CCC1`, the “% Inhibition” value was -10% and the Z score was 0.88.
The like results for `O=C(c1ccc2[nH]ncc2c1)N1CC[C@]2(CCOC2)C1` were, in that order, -10% and 1.32.
`O=C(c1csc(C2CC2)n1)N1CC[C@H](Oc2cccc(F)c2)C1`: the “% Inhibition” value is -4% and the Z score stood at 0.43.
Turning to `CN(C(=O)NCCC1=CCCCC1)C1CCN(c2ccccn2)CC1`, the “% Inhibition” value is listed as -13% and the Z score was 1.67.
The corresponding values for `O=C(c1ccncc1)N1C[C@@H]2OCC(=O)N(Cc3ccccn3)[C@@H]2C1` are -8% and 1.69.
In the case of `CC1CC(C)CC(c2noc(C(=O)c3cnn(C)c3)n2)C1` (stereo not given), the “% Inhibition” value is on record as -5% and the Z score worked out at 0.55.
Regarding `O=S(=O)(NC1CCCC1)C1CN(c2nnc(-c3ccccc3Cl)s2)C1`, the “% Inhibition” value is -1% and the Z score amounted to 0.1.
As to `CCn1c(CN2CCC[C@H](c3nc4ccccc4s3)C2)nc2cc(S(=O)(=O)N(C)C)ccc21`, the “% Inhibition” value was -14% and the Z score stood at 1.43.
On to `CN1CCC(CC(=O)N[C@H](c2ccccn2)C(F)(F)F)CC1`, for which the “% Inhibition” value is recorded as -12% and the Z score was 1.96.
With `COC[C@@H]1[C@H](C(=O)N2CCN(c3ccccc3F)CC2)CCCN1Cc1ccccc1`, the “% Inhibition” value was -6% and the Z score was 0.73.
The like results for `CC(C)c1nccn1C1CN(C(=O)c2ccoc2)C1` were, in that order, 1% and -0.21.
Regarding `CC(C)CNC(=O)c1cc2cc(NS(=O)(=O)c3ccc(C(C)(C)C)cc3)ccc2n1Cc1ccccc1`, the “% Inhibition” value was -13% and the Z score stood at 2.54.
For `Cc1ccc(S(=O)(=O)NC(=O)C2(c3ccc(F)cc3)CCC2)cc1C`, the “% Inhibition” value is recorded as 4% and the Z score is -0.46.
Regarding `COc1nccc(NC(=O)NCC(=O)OC(C)(C)C)n1`, the “% Inhibition” value was -11% and the Z score was determined as 1.01.
On to `C[C@H]1CN(C2CCN(S(=O)(=O)c3cnoc3)CC2)CCN1c1ncc(C(F)(F)F)cc1Cl`, for which the “% Inhibition” value is -1% and the Z score was 0.12.
As for `COCCCN(CCC(=O)NCCC(C)C)C(=O)c1ccoc1`, the “% Inhibition” value is reported as -11% and the Z score stood at 1.1.
The corresponding values for `Cn1cc(Cl)c(C(=O)NCCc2cnn(-c3ccccc3)c2)n1` are -7% and 1.
The corresponding values for `C[C@H]1CCCN(c2ccc(Cl)cc2NC(=O)c2cncs2)C1` are -15% and 2.6.
The like results for `O=C(NC1(CC(F)(F)F)CC1)c1cc2n(n1)CCCO2` were, in that order, -7% and 0.88.
For `Cc1csc([C@@H](NC(=O)CC2CCN(C)CC2)C(F)(F)F)n1`, the “% Inhibition” value is -11% and the Z score came out at 1.55.
Take `Cc1nn(C)c2nc(NCc3nnc4n3CCCCC4)sc12`: the “% Inhibition” value is -16% and the Z score came out at 2.39.
The corresponding values for `Cc1nc(-c2ccccc2NC(=O)NCCC2(O)CCC2)cs1` are -1% and 0.12.
On to `Cc1c(S(=O)(=O)N2CCc3ccccc32)cc(-c2nc(-c3ccc(F)cc3)cs2)n1C`, for which the “% Inhibition” value is reported as -14% and the Z score came out at 1.66.
Take `Cc1oncc1CN1CCN(C(=O)c2ccc3ccccc3n2)CC1`: the “% Inhibition” value is -5% and the Z score is on record as 0.66.
The corresponding values for `O=C([C@H](O)c1ccc(Cl)cc1F)N1CCN(C2CC2)CC1` are -11% and 1.11.
The like results for `Cc1ccsc1[C@H]1CCN(C(=O)c2ccc(C#N)nc2)C[C@@H]1O` were, in that order, -5% and 1.08.
The like results for `COc1ccccc1CC(=O)NCc1cn(-c2ccsc2)nn1` were, in that order, 9% and -1.33.
On to `Cc1nc2ccccc2n1CCN[C@@H](C)c1ncc(Cl)n1C`, for which the “% Inhibition” value is recorded as 1% and the Z score is listed as -0.09.
Take `Cc1occc1CN(C)S(=O)(=O)c1ccc(C#N)cc1`: the “% Inhibition” value was found to be 5% and the Z score was -0.54.
The corresponding values for `CC1(C)CC[C@H](CS(=O)(=O)NCCc2cn[nH]c2)OC1` are 1% and -0.13.
For the compound `N#Cc1ccc(NC2CC2)c(NS(=O)(=O)C[C@H]2CCCO2)c1`, the “% Inhibition” value was -11% and the Z score turned out to be 1.14.
On to `Cc1cc(Br)ccc1CC(=O)NC(C)(CO)CO`, for which the “% Inhibition” value is listed as -6% and the Z score came out at 0.6.
With `C[C@@H](C(=O)Nc1c(F)cccc1NC1CC1)n1cccn1`, the “% Inhibition” value is on record as -10% and the Z score was found to be 1.95.
Turning to `COc1ncncc1NC(=O)[C@H](C)c1ccc(Cl)s1`, the “% Inhibition” value is -4% and the Z score is recorded as 0.66.
The corresponding values for `O=C1CCN(C(=O)[C@H]2CC(=O)N(c3ccc4c(c3)CCC4)C2)CCN1` are -11% and 1.36.
The corresponding values for `CC(c1nnc(-c2cccs2)o1)N1CCOC(c2nccs2)C1` (stereo not given) are -3% and 0.32.
